{"source": "paper PMC7819943", "about": "“Rice protein-binding microarrays: a tool to detect cis-acting elements near promoter regions in rice”", "note": "The list shows a part of the results."}
{"molecular_target": "T1, OsWOX13 (Oryza sativa, UniProt Q5QMM3 1-267)", "T1 sequence": "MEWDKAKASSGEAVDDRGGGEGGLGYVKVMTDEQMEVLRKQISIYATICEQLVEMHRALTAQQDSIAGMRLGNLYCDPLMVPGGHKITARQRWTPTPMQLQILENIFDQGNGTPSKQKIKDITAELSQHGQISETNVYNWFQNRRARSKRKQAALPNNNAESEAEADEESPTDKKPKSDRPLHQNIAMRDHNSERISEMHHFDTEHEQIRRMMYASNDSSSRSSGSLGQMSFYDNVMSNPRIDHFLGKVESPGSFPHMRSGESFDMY", "assay": "protein-binding microarray (RPBM); PBS, 2% BSA, 51.3 ng/ul salmon testes DNA, 50 uM zinc acetate, 200 nM TF, 25 C, 1 h; high values mean tight binding", "settings": "protein: recombinant; tags: N-terminal polyhistidine and DsRed monomer fusion (pET32a); label: CyDye5-dUTP incorporated in the synthesized complementary strand; 3' TTTTT single-stranded linker to array surface; dsDNA, one strand shown", "how_it_was_run": "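The binding signal for each feature is its fluorescence intensity in arbitrary units. An Axon 4000B scanner was used to read a custom Agilent array that had been made double-stranded with Cy5-dUTP primer extension, blocked with 2% BSA, incubated at 25 °C for 1 h with 200 nM protein in PBS, 2% BSA, salmon testes DNA and 50 µM zinc acetate, and washed. The protein was an N-terminal polyhistidine–DsRed transcription factor fusion from E. coli BL21-CodonPlus, purified on Ni–NTA.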"}
{"sequence": "CAAGTAAATTATGGTGTATGTATTTCACATGAACAGTCAACGGAGTCACCTAGTGCAG", "binding signal": "7020 fluorescence intensity (a.u.)"}
{"sequence": "CATAATTAAGGTCTCTAGCTGGCTAACTGTTTGCATACTCCGGAGTCACCTAGTGCAG", "binding signal": "8050 fluorescence intensity (a.u.)"}
{"sequence": "AACCCAATCACACCGGATTAGTTGAGCTCGTTTTGCGTTTCGGAGTCACCTAGTGCAG", "binding signal": "17600 fluorescence intensity (a.u.)"}
{"sequence": "GGGATCGGGGTAATTGATGATTTCTTATGCCAGTTAATGCCGGAGTCACCTAGTGCAG", "binding signal": "28100 fluorescence intensity (a.u.)"}
{"sequence": "TGCATTAATTGCTTCCATATCTGGGGTTCAAACTGATATCCGGAGTCACCTAGTGCAG", "binding signal": "10200 fluorescence intensity (a.u.)"}
{"sequence": "AGTGTAATTGGATTGTAAATCGGATAAGTAATTTGAGAGACGGAGTCACCTAGTGCAG", "binding signal": "29400 fluorescence intensity (a.u.)"}
{"sequence": "ATACCCTTAACCTTGTTAATTTAATGTTTGATCAGGCAACCGGAGTCACCTAGTGCAG", "binding signal": "6220 fluorescence intensity (a.u.)"}
{"sequence": "GCTCACCTTGTGATTAGCATAGCCACTGCAGATATCGAATCGGAGTCACCTAGTGCAG", "binding signal": "3880 fluorescence intensity (a.u.)"}
{"sequence": "TTTAAAATGAGAATAATTACATTGGAATTTGATAAAGGAGCGGAGTCACCTAGTGCAG", "binding signal": "16900 fluorescence intensity (a.u.)"}
{"sequence": "TATGTTATAATTGCATTCAGAGCACGAACAGCGCTAGACTCGGAGTCACCTAGTGCAG", "binding signal": "4630 fluorescence intensity (a.u.)"}
{"sequence": "ATTATATGATTAATGAATATGCATATCGATAATATGGACACGGAGTCACCTAGTGCAG", "binding signal": "14800 fluorescence intensity (a.u.)"}
{"sequence": "GATTATGATTAGTATTTTCATTGTTATTAGATGATAAAATCGGAGTCACCTAGTGCAG", "binding signal": "3620 fluorescence intensity (a.u.)"}
{"sequence": "ACCAAACAATCATATGAGACACACAGGTCCATCACATGAGCGGAGTCACCTAGTGCAG", "binding signal": "4870 fluorescence intensity (a.u.)"}
{"sequence": "AAATGAAATTTGAAGCAATTGATATTGGTGTTGCGGTCATCGGAGTCACCTAGTGCAG", "binding signal": "5540 fluorescence intensity (a.u.)"}
{"sequence": "GTGTAAAATATATATATAATTTTGTAGGGTGCTAGCGCATCGGAGTCACCTAGTGCAG", "binding signal": "3610 fluorescence intensity (a.u.)"}
{"sequence": "CCACTAAATTGAAATGACCGGGCCTGGTAAACCCAACGAGCGGAGTCACCTAGTGCAG", "binding signal": "26800 fluorescence intensity (a.u.)"}
{"sequence": "TATAATTTAGACAAACTTAAATATTACTAAATTAGGCAAACGGAGTCACCTAGTGCAG", "binding signal": "13600 fluorescence intensity (a.u.)"}
{"sequence": "AATAATCAATAACTATCACGCGCAATATGAATATTACACACGGAGTCACCTAGTGCAG", "binding signal": "6040 fluorescence intensity (a.u.)"}
{"sequence": "GCTATTGACAGCTTCAGGAGAACATTATCTGATGTGGTTACGGAGTCACCTAGTGCAG", "binding signal": "7760 fluorescence intensity (a.u.)"}
{"sequence": "AGTCATGTGATAGATCACATCTCCAATATTTTAGTACCCGCGGAGTCACCTAGTGCAG", "binding signal": "4870 fluorescence intensity (a.u.)"}
{"sequence": "GTAAATTAGCAAGCAGCAGCATCAGTAACAGCAGCCATGACGGAGTCACCTAGTGCAG", "binding signal": "7970 fluorescence intensity (a.u.)"}
{"sequence": "GCTAATTTTGTTATACAAATAAGTGCCAAAAGAACATCCTCGGAGTCACCTAGTGCAG", "binding signal": "4230 fluorescence intensity (a.u.)"}
{"sequence": "TGTTAATGTCACTTGCTAATCACTAGAATTTAAATGCGTGCGGAGTCACCTAGTGCAG", "binding signal": "8770 fluorescence intensity (a.u.)"}
{"sequence": "GACTTCTGATTTGCGTGGCTTAGTGAACAGGGCACCTCCTCGGAGTCACCTAGTGCAG", "binding signal": "6320 fluorescence intensity (a.u.)"}
{"sequence": "TGCTTATATTTGTAGCTAATTATTCTTTCTATGACAGACGCGGAGTCACCTAGTGCAG", "binding signal": "3990 fluorescence intensity (a.u.)"}
{"sequence": "TGTATATACACCCATCAATCACTTGACCAAGGTAACATGCCGGAGTCACCTAGTGCAG", "binding signal": "11500 fluorescence intensity (a.u.)"}
{"sequence": "TTCGGGGATGTGAATGGGAATGGATTGGATCTTGGGATTACGGAGTCACCTAGTGCAG", "binding signal": "3670 fluorescence intensity (a.u.)"}
{"sequence": "TATTTAATTTTACGGTAAGTGTACGATAACAAGTTGAGTGCGGAGTCACCTAGTGCAG", "binding signal": "12100 fluorescence intensity (a.u.)"}
{"sequence": "TTTAATTTCTTTATTTAAAATTTCATGCTATACAGTTTTCCGGAGTCACCTAGTGCAG", "binding signal": "6480 fluorescence intensity (a.u.)"}
{"sequence": "TCTTGATGGCACAATTCCTGACTCTTTCGTCAATTTGAAACGGAGTCACCTAGTGCAG", "binding signal": "4720 fluorescence intensity (a.u.)"}
{"sequence": "ATTCGGATTGGTATCAATTCATGATCCCCAAGATTAGTTACGGAGTCACCTAGTGCAG", "binding signal": "10800 fluorescence intensity (a.u.)"}
{"sequence": "CTCGCTCTTCATCACTGCCAATTGACCCTAAATCTCATGTCGGAGTCACCTAGTGCAG", "binding signal": "3230 fluorescence intensity (a.u.)"}
{"sequence": "CCTAACTGATGCACCCCAAATTCCATACCATATGTACCTTCGGAGTCACCTAGTGCAG", "binding signal": "19800 fluorescence intensity (a.u.)"}
{"sequence": "TAAGCTAATAATGCTTAATTAATCATGTGGTAACCTCGCCCGGAGTCACCTAGTGCAG", "binding signal": "8100 fluorescence intensity (a.u.)"}
{"sequence": "CCATAATCTTTCCTAATTACTATTATTAGTGTTAAGTATACGGAGTCACCTAGTGCAG", "binding signal": "8910 fluorescence intensity (a.u.)"}
{"sequence": "TTATAATTACTTATAGTACCTCCAAAACTAATTTAGCAGCCGGAGTCACCTAGTGCAG", "binding signal": "14700 fluorescence intensity (a.u.)"}
{"sequence": "AAATATATTGTAATTACACCGTAATTATGCTATAGTTATACGGAGTCACCTAGTGCAG", "binding signal": "17300 fluorescence intensity (a.u.)"}
{"sequence": "TCTGTTGATGGATGTGGATGTTGTGCAGGTGACGCTGCAGCGGAGTCACCTAGTGCAG", "binding signal": "5150 fluorescence intensity (a.u.)"}
{"sequence": "AATTGATGGAAAATTGTCCCTCGTTTCGCTCCGGCCTGCCCGGAGTCACCTAGTGCAG", "binding signal": "20200 fluorescence intensity (a.u.)"}
{"sequence": "TTGCTAATACTTAATTAATCACGTGTTAATGTACCGCCCCCGGAGTCACCTAGTGCAG", "binding signal": "20500 fluorescence intensity (a.u.)"}
{"sequence": "GTCTCAATTCAAAACTAATTTATGAACATTTCAATTGAATCGGAGTCACCTAGTGCAG", "binding signal": "6370 fluorescence intensity (a.u.)"}
{"sequence": "TATAAATCAAATTAGGACAATGTTATTCATCACAGTAACACGGAGTCACCTAGTGCAG", "binding signal": "6120 fluorescence intensity (a.u.)"}
